# Data from ChEMBL document CHEMBL4888484, “Replenishing the malaria drug discovery pipeline: Screening and hit evaluation of the MMV Hit Generation Library 1 (HGL1) against asexual blood stage Plasmodium falciparum ,using a nano luciferase reporter read-out” (2022).
# The whole screen tested about 150,000 compounds, of which about 540 (0.36%) showed an effect of 50% or more. The list shows a part of the results.
# Test system: Plasmodium falciparum
# Assay: Primary screen in NF54 nanoGlo assay, in single point, at 2uM, 72h; a lower Z score goes with more inhibition
# Format: functional, Erythrocyte
# Conditions: timepoint 72 hour
Compound,% Inhibition,Z score
CC(C)(C)OC(=O)C(C)(C)c1nc([C@H]2CCCOC2)cs1,-9%,1.57
CS(=O)(=O)N1CCc2cc(S(=O)(=O)NC3CCCCCC3)ccc21,-5%,0.82
COc1ccc(F)cc1CN1CCC(Oc2cccc(F)c2)(C(=O)O)CC1,-4%,0.52
O=C(NCCCN1CCOCC1)c1cnoc1-c1ccccc1,-6%,1.1
CC(C)C[C@H]1NC(=O)c2cc(F)ccc2OCCn2cc(nn2)CCN(C(=O)CCC2CCC2)CCNC1=O,-1%,0.15
COc1ccc(CNC(=O)N2CCCOCCNC(=O)[C@@H]3CCCC[C@@H]32)cc1,-8%,1.43
CCn1cc(CNC(=O)c2cc(C)nc3onc(-c4ccc(OC)cc4)c23)cn1,-1%,0.15
COCC(=O)N1CCCC2(CCCCC2)CC1,-4%,0.56
Cc1ccc(Cn2c(=O)c(C(=O)NCc3ccccn3)nn(-c3ccc(C)c(F)c3)c2=O)cc1,-17%,2.8
O=C(C1CCCCC1)N1CC[C@H](c2nnc(-c3ccccc3)o2)C1,12%,-1.4
CON(C(=O)c1nc(C)oc1C)[C@@H](C)c1ccccc1C,6%,-0.67
CCc1ncnc(NCC2CCCC2NS(C)(=O)=O)c1F (stereo unspecified),-9%,0.88
O=C(Nc1cccc(N2C(=O)c3c(Cl)c(Cl)c(Cl)c(Cl)c3C2=O)c1)c1cccs1,9%,-1.24
O=C(CCc1ccc(Cl)c(F)c1)N1CCC(N2C(=O)CNC2=O)CC1,-1%,0.11
c1ccc(CC(c2cc(-c3ccccc3)nc(-c3ccccc3)c2)c2cc(-c3ccccc3)nc(-c3ccccc3)c2)cc1,6%,-1.07
Cc1cccc(CN(Cc2nc(C(=O)NCCN3CCOCC3)co2)[C@@H](C)C(C)C)c1,2%,-0.15
Cc1oc2c(c1C(=O)N(C)CCc1ccncc1)C(=O)CCC2,-7%,0.96
Cc1cccc(NC(=O)N2CCC(c3cc(N)on3)CC2)c1,1%,-0.16
CN(CCc1cccs1)C(=O)NCC1CCC2(CC1)OCCO2,0%,-0.04
Cc1cnc(C)c(N2CCC[C@H](c3ncc(C)s3)C2)n1,-11%,1.45
CCCc1cnc(C)nc1NC(CO)(CO)CO,-1%,0.13

Compound,% Inhibition,Z score
CNS(=O)(=O)CC(=O)NCC1(Nc2ccccc2C)CCCC1,-5%,0.87
CC(C)(C)OC(=O)NCC1CCCCC1OC(=O)C1CCOCC1 (stereo unspecified),-1%,0.16
CC(C)c1nnc(NC(=O)[C@@H]2CN(Cc3ccccc3)CCO2)s1,0%,0
Cc1c([C@@H]2CC(=O)Nc3c2nc2n3CCCC2)c(=O)n(-c2ccccc2)n1C,-6%,0.96
CCOc1ccc(CCn2c3c(c(=O)[nH]c2=O)C(C(F)(F)F)(C(F)(F)F)N=C(c2ccccc2)N3)cc1OCC,-12%,1.56
COc1ccccc1-c1nnc(-c2cccc(S(=O)(=O)N3CCCC3)c2)o1,4%,-0.61
O=C(NCc1nccs1)c1ccc(Cl)o1,28%,-3.83
Cc1cc2nc(C)c(=O)n(Cc3ccc(C(=O)NCc4ccco4)cc3)c2cc1C,35%,-0.73
FC(F)(F)c1nnc2ccc(N3CCNc4ccccc4C3)nn12,1%,-0.15
CN1CCN(S(=O)(=O)c2ccc3c(c2)CCCC3)CC1,-13%,1.39
O=C(Cc1cc(-c2ccccc2)on1)Nc1cccc(C(=O)O)c1,-11%,2.06
CCC(=O)Nc1ccc2c(c1)CN(C(=O)c1ccccc1OC)[C@H](C(=O)N1CCCC1)C2,-5%,0.83
Cc1ccnc(-c2noc([C@H](C(=O)OC(C)(C)C)C3CCCC3)n2)n1,-10%,1.42
CCC(NC(=O)c1cc2n(n1)CCC2)C(O)c1c(F)cccc1F (stereo unspecified),-5%,0.88
CCc1noc(-c2nc(-c3ccccc3C)no2)n1,3%,-0.47
CCOc1ccc(NC(=O)CCc2c(C)nn(-c3nc(C)c(C)c(=O)[nH]3)c2C)cc1,-11%,1.47
Cc1n[nH]c(C)c1-c1ccc(C(=O)N2CCOCC2)o1,-19%,2.5
Cc1ccc(S(=O)(=O)N(c2cccc(F)c2)C2CCN(C)CC2)c(F)c1F,1%,-0.14
O=C(C1CCN(c2ncnc3[nH]cnc23)CC1)N1CCc2nc[nH]c2C1,-3%,0.37
COCCN1C[C@@H](Cc2ccc(S(C)(=O)=O)cc2)CC1=O,13%,-1.66
COc1ccc2c(c1)N1CCN(Cc3ccc(Cl)cc3)CC1C(C(=O)NCc1ccccc1F)C2 (stereo unspecified),1%,-0.18

Compound,% Inhibition,Z score
CS(=O)(=O)N1CCN(c2ncnc3cc(Cl)ccc23)CC1,7%,-0.78
CC1CC(C)CN(C(C)CNC(=O)c2cc(-c3ccccc3)nc3ccccc23)C1 (stereo unspecified),-10%,1.36
CCN(CC(=O)NC(C)C)Cc1cccc(C(=O)OC)c1,3%,-0.46
C=CCNC(=O)Cn1c(-c2ccccc2)nn(-c2ccc(Cl)cc2)c1=O,-14%,1.34
CC(C(=O)NC(=O)NC1CC1)N1CCC2CCCCC2C1 (stereo unspecified),-11%,1.42
O=C(c1cccc2cc[nH]c12)N(CC1CC1)C1CC1,36%,-1.08
O=C(Cn1cnc2c1CCCC2)N1CCN(Cc2ccccc2)CC1,-15%,2.05
Cc1cc(C)c(S(=O)(=O)N2CCC3(CC2)NCCN=C3NC2CCCC2)c(C)c1,5%,-0.91
CC1CN(C(=O)c2cc(=O)[nH]c3cc(F)ccc23)CC1N(C)C (stereo unspecified),11%,-1.53
Cc1ccc(-n2c(N(C)C)nc(CN3CCC(n4cncn4)CC3)c2Cl)cc1,-12%,1.41
CC(C)c1nc2ccc(C(=O)NCc3ccccc3Cl)cc2o1,-24%,2.24
O=C(NC1CCCCC1)N(Cc1ccc(F)cc1)c1ccc(C2c3ccccc3Oc3ccccc32)cc1,9%,-1.15
COCCN1C[C@@H](C(=O)N2CCN(S(=O)(=O)c3ccc(C)cc3)CC2)CCC1=O,-8%,1.14
Cc1nc2c(c(N3CCN(c4c(N)c(C)nn4C)CC3)n1)CCCC2,7%,-1.3
CN(C)c1ccc(CNn2cnnc2)cc1,-9%,0.76
CN(C)[C@H]1CN(Cc2cc(C(C)(C)C)[nH]n2)C[C@@H]1C1CC1,-21%,2.73
CN1CCCN(S(=O)(=O)Cc2ccccc2)c2cc(F)ccc21,16%,-1.79
CCn1c(=O)c(N2CCC[C@H](C(=O)NCc3ccccc3OC)C2)nc2cccnc21,35%,-5.13
COc1cc2c(cc1OC)CN(C(=O)CN1CCc3[nH]ncc3C1)CC2,4%,-0.57
O=C(N[C@H]1CCCc2ccccc21)c1ccsc1,7%,-0.86
CCCN1CCC(NC(=O)c2ccc(-c3ccco3)nc2C)CC1,-7%,1.24

Compound,% Inhibition,Z score
CCn1cc(CN2CC[C@H](CNC(=O)c3ncccc3O)C2)cn1,-15%,2.31
O=C(Cn1ncc2c([nH]c3ccccc32)c1=O)Nc1ccccn1,1%,-0.09
O=C(C1CCC1)N1CC(n2cc(-c3ccccc3)nn2)C1,-17%,2.14
COC(=O)c1ccc(C(=O)N2CCC(C(=O)N3CCCCCC3)CC2)cc1,-8%,1.02
CN(Cc1nnn(C)n1)C1CCN(Cc2ccccc2)CC1,-3%,0.59
CC(C)CC1(CNC(=O)[C@@H]2CCCC[C@@H]2C(=O)N2CCCC2)CCC1,-9%,0.98
O=C(Cn1cnc2ccccc21)N1CCN(c2ncccn2)CC1,-19%,2.76
Cc1nn(C2CCCCC2)c2nc(C3CCOCC3)[nH]c12,-9%,1.23
Cc1cn2c(C(=O)N3CCC[C@H]3c3nc(C(C)C)no3)csc2n1,-27%,2.42
CCc1cc(NC(=O)c2cncs2)nn1C,-9%,0.9
CCCN(Cc1ccccc1)c1nnc(-c2ccccc2)n1C,-42%,4.91
O=C(Nc1c(F)cccc1OCc1ccccc1)N1CC[C@H](O)C1,-1%,0.14
CCCn1c(NCc2cc(Cl)cc(Cl)c2O)nc2ccccc21,32%,-3.61
CC(C)c1nccn1Cc1cc(C(=O)N[C@H]2CCCNC2=O)n[nH]1,-21%,2.2
CCCN1CCC(N[C@@H]2CC[C@@H]2NC(=O)C2=Cc3ccccc3OC=C2)CC1,7%,-1.07
Cc1n[nH]c(CN2CCC[C@H]2c2nccs2)c1Cl,11%,-1.43
CCCNC(=O)N1CCc2cn(C)c3cccc(c23)C1,-15%,1.47
O=C(COCc1ccccc1)N1CCCn2nc([C@@H](O)C3CC3)cc2C1,2%,-0.47
CC1(C)C[C@]1(CNC(=O)c1cnc(C2CC2)nc1)c1ccccc1,-20%,1.92
Cc1nc(C)c(F)c(NCCCOC(C)C)n1,5%,-0.66
